Laboratory results as given in the supplement of paper PMC11417369.
Some of the results follow.

tested on: PfSIP2 AP2 domain 1 (GST-tagged); experiment: gcPBM binding intensity (ln(normalized median fluorescence intensity)); higher = stronger DNA binding
Method in brief: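 Binding of GST-tagged P. falciparum DNA-binding domains, expressed in E. coli and used at about 25 μg on average, was carried out for 1 h in 1× PBS containing 1% milk, 0.2 mg/ml BSA, 0.5% salmon testes DNA and 0.03% Triton X-100. The target was an Agilent 4 × 180k array of primer-extended double-stranded 36-bp intergenic genomic probes plus negative controls, read with Alexa488 anti-GST antibody at 488 nm. Binding intensity is the highest Masliner-normalised natural-log median intensity across replicate spots of either probe orientation.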

Sequence	gcPBM binding intensity (ln)
TATTGTATTTAATAAACACACAATATTAAAAATATA [CACACA_site4725]	6.91
CATATATACACATACACACACACACGGACACGCACA [CACACA_site6910]	7.74
ATACACATATATGTGTGTACTCACCTTTTAATATGA [XGTACX_site4349]	7.16
TTTAATTTGTTATACACACACAAAAAAAGTTATAAA [CACACA_site7779]	7.01
TCTTTCTTATATTTATATAATTATATTTATTTTATA [GTGCAC_negctrl_site300]	7.13
GGAATACAGGAAAAAAGTACAGAAAATGGAATATTA [XGTACX_site5053]	7.03
ATATAATGTTATAGAAGTACATGAAATACTTATTTA [XGTACX_site8850]	6.73
AACATTTATAAATATTGTACATATAGATTTATATAT [XGTACX_site2662]	7.06
AAAATAAAATAACGTTGTACAACATCATTTCTATAT [XGTACX_site5080]	6.84
AACAATATATTGAATAGTACATATATATAAACATAT [XGTACX_site2811]	7.04
ATTATACAAAATGGTAAGGAAAAGGAAATTTTTTTT [CACACA_negctrl_site1090]	6.66
CAATATTATATATATACACACATAATCTGTAAAAAC [CACACA_site1068]	7.07
CATATATATATATATACACACATATATATTTTCTTT [CACACA_site1457]	7.54
AAAAAAAAAAATATCACACACACATAAATATAAACA [CACACA_site7138]	6.97
AAAGTAGGCTTATATGCACACTTTGAAATATTATAA [CACACA_site5117]	7.07
ATAAAAATTGATTATACACACGCGCACCCACAACAA [CACACA_site3536]	11.2
TATTTATAAATTTACACACACACATGGGAACATAAA [CACACA_site5111]	7.25
ATGTCAAATTTTTGTGCACACATATATAGTTATTAT [CACACA_site2242]	9.47
TATATATATCAGCAATGTACACAATGCATATTATAT [XGTACX_site4836]	7.11
TAAGGATAAATAAAATGAAATGAAATAAATAAATGA [XGTACX_negctrl_site539]	6.82
TTATTTTATTTTAAAAAAAACAATATAAATTCAAAG [GTGCAC_negctrl_site57]	6.98
TCTACAATTATAATTACACACTATAAAAAAGAAAGA [CACACA_site2984]	7.08

Sequence	gcPBM binding intensity (ln)
AAAAATAGGAACCAATATCCAACGTGACTTTATAAT [CACACA_negctrl_site1011]	6.76
ATTTTTTTTTTTTTTTTTTTTTTTTTTTGATTTGTG [CACACA_negctrl_site1391]	6.86
AAAATAATTATGAATTGTACAGGTTTTTTTTTTTTT [XGTACX_site220]	6.96
AAAAAATTTTTAAGCACACACATAGATAATATATAT [CACACA_site1555]	7.35
GGAAAAAAAAAAAAAAAACACACGGTACATTCAAAC [CACACA_site2715]	6.79
ATGGTTTAGTTATATACACACTCGAAAATAACGACA [CACACA_site7520]	7.09
TATAAAAATATATTTACACACTATATATATCGAAAG [CACACA_site1700]	7.04
ATATATTTTCAAAAAAGTAAATCAAAATAAATATAT [TGCATGCA_negctrl_site319]	7.04
TCCAAATACAACTACACACAAACAAAAATTATATAT [CACACA_site881]	7.03
AAAATTTTTCTTAAAGCATGCACAATTAAGAAGACG [TGCATGCA_site883]	7.81
TTTTTTTTAAGAGATAGTACATAAATATTATAATAT [XGTACX_site4685]	7.07
AAATAAAATTTTATGTGTACGCAAAAAGTTGTAAGC [XGTACX_site8911]	7.47
TTAAAATTAATTCACCAGTATTAAAATAAAAACGAA [CACACA_negctrl_site1428]	7.56
AATAAATAAATATATACACACATATATATATAATAT [CACACA_site921]	7.08
TACAATCTAAAATACACACACACAAACATATATTTA [CACACA_site3702]	7.02
ATATTAATATATATGTTTTATTACCATTTTATGTAT [CACACA_negctrl_site1761]	7.05
AAGATATATATAGAAAGTACTTATATTTGTATAATT [XGTACX_site8855]	6.91
ATTTAATAACGGCATGCATGTCCTTATATAAATTTA [TGCATGCA_site1012]	6.79
TGAATTGTAATTTATAATATACGTGGTTTCTACTTA [CACACA_negctrl_site559]	6.66
CCTTACCAAATAATATGTACACATTTAATGTTATAT [XGTACX_site7840]	7.22
TATTATATATTATATAGTACATATTTATGTAAGAGG [XGTACX_site3099]	7.43
TATCAGTATACAACAACACACATAATGTTTGTCATC [CACACA_site2980]	6.92

Sequence	gcPBM binding intensity (ln)
CACTTAAAAAAAATACGTACACATATATATATATAT [XGTACX_site2054]	9.47
CAAAAATAAATATAAACACACAATAAATAAATAAAT [CACACA_site891]	6.69
ATGGTATCTTTTAGAAGTACATCATGATAATAATTT [XGTACX_site5544]	7.18
GATCATAATATTTAAAAGAATATATATAAAAAGGAA [XGTACX_negctrl_site310]	7.03
GTATTAATTTATATATGTACATATGTGATATATATA [XGTACX_site5825]	7.4
CAAAATTAATAAGTCACACACACATATATAATATAT [CACACA_site798]	7.07
TATAAAAATATATGCACACAAATAAAAAATTATATA [CACACA_site3629]	8.26
TATATTTATACAATATGTACATATTATATATATATA [XGTACX_site3098]	8.47
TCATAGCACAAAAAATGTACTTATTATTTAATATTT [XGTACX_site5687]	6.82
ATGTGATAATTTAATAGTACATAACAGTTTAACAAT [XGTACX_site5854]	7.16
TTTTTTATTAAATATATATAATAATAATAATTTGTA [CACACA_negctrl_site1719]	6.88
TTATAATAAATATTTATTATATATAATATATATTAC [CACACA_negctrl_site1802]	6.89
TATATTATATATTTATGTACGTATTTGTAAAAAGAT [XGTACX_site3444]	7.49
TTTGTTTTATGTGGTTGTACACAAATACAATTTAAA [XGTACX_site5156]	7.32
ATAATAATTATATCAGTGCGCATATATATTTATTTA	9.87
GTTTCCTTAATATTCACACACATATCTATAATATAT [CACACA_site6959]	7.56
TTTATATGCAATTAAGTGCATAAGAAAAAAAAAGGA [GTGCAC_site9966]	8.46
CAAACAAATTGTGAAACACACATATTTATATTTATA [CACACA_site7030]	6.72
TTATAAAATAAACTTACACACATGAAATATTATAGT [CACACA_site7000]	6.84
AAAAACAATCATTTTAAATAAAAATCTCTAATTTAA [GTGCAC_negctrl_site138]	6.52
ATTTGTTCATTTGGTTGTACATAATTTATTTTTATA [XGTACX_site785]	7.26
TTTTCATTTTTTTTTTTTTTTTTTTTTCTTTTTTTT [CACACA_negctrl_site1312]	6.85

Sequence	gcPBM binding intensity (ln)
ATTTCTTTAATATACACACACCAAAACAAAAAAAAA [CACACA_site6416]	7.4
GTTGTGTAATTCGTAACACACATAAAATATATATAA [CACACA_site6059]	6.97
ATATAGTTCGATATAGTTAGTATGAATTGAAAAATA [CACACA_negctrl_site1826]	6.92
TTTTTAAAATATTTAACACACAATTTTAATGCATAA [CACACA_site6036]	6.75
AAAAAAATAAAACACACACACAAAAAAATAAAAATA [CACACA_site465]	6.84
GAAATTAAATGACATACACACTATATTATATATTTT [CACACA_site5693]	6.82
TAGATAGATTAAAATACATGCATATTATTAAAAAAT [TGCATGCA_site739]	6.88
CACCCATACACATACAAACACACATTCTATATATAT [CACACA_site1600]	7.92
AGCATAAAAATGATATGTACATATATATATATATAT [XGTACX_site2836]	9.18
CATACATACATACATACACACATACATATGTATATA [CACACA_site7216]	8.04
ATTTAATGTATTTTGCGTACGAATTATTTTATTTCA [XGTACX_site7331]	7.19
AATCATAAACATTATGCACACAAAAATAAAAAAAAA [CACACA_site8289]	7.36
TATCTTCAATGTGAAAGTACTTAAATTGTTATAAAA [XGTACX_site2586]	6.94
TGGAATAAAAAAAGGAGTACAATTAATTATTCTTAA [XGTACX_site8299]	6.63
TATATATATATATATGTGCACATATTTATATGTTTT	9.47
ACTTATAATATTTAGTGTACATATTGTGACTAATAC [XGTACX_site1508]	7.35
AAAAAAAAAACAAATGCATGTAATATAAGAATTACA [TGCATGCA_site908]	6.77
TATTTATAAATTTACACACACACATGTGAACATAAA [CACACA_site1909]	7.12
ATTTTAAAAAATTAATGTACTTAATTAATACTGAAA [XGTACX_site7702]	6.78
TATCAAAAAAAAAGTAGTACGATAATAGTTTCCCAA [XGTACX_site1812]	7.01
TTTATGTATTTAATATGTACATATAGTTGTTAATAA [XGTACX_site1938]	7.02
GCTATATATTAATGTTGTACTTTATGTTCATATTGT [XGTACX_site3619]	7.22
